Data taken from the supplement of paper PMC11417369.
± gives the standard deviation of the averaged measurements. Some of the results follow.

The sequences below were run on PfAP2-I AP2 domain 3 (GST-tagged) (assay: gcPBM binding intensity (ln(normalized median fluorescence intensity)); higher = stronger DNA binding).
In short: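 An Agilent 4 × 180k array carrying primer-extended double-stranded 36-bp intergenic genomic probes and negative controls received GST-tagged P. falciparum DNA-binding domains expressed in E. coli, about 25 μg on average, for 1 h. The binding buffer contained 1× PBS, 1% milk, 0.2 mg/ml BSA, 0.5% salmon testes DNA and 0.03% Triton X-100. Binding intensity is the top Masliner-normalised natural-log median intensity across replicate spots of either probe orientation, read after Alexa488 anti-GST antibody staining and a 488 nm scan.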
For “TTATTTATAATGTTGTGTACATATATGAATATACCA [XGTACX_site3111]”, the “gcPBM binding intensity (ln)” value was 7.67 ± 0.32. In the case of “TATTTTACGTATTGTTGTACTTGAAACAAATATACA [XGTACX_site8778]”, the “gcPBM binding intensity (ln)” value is reported as 7.84 ± 0.35. For “TTTTTTCAATTGGAAATTATTTTACAATGAAGGGTA [XGTACX_negctrl_site469]”, the “gcPBM binding intensity (ln)” value was 7.69 ± 0.3. GATATATATACATGTGTGCACCATGCAACTTGTTTT was tested, and the “gcPBM binding intensity (ln)” value was 10.4 ± 0.13. With “TATAAACATAAATATACACACAAACATATATGTATT [CACACA_site8324]” the “gcPBM binding intensity (ln)” value was 7.87 ± 0.25. For “AGACATATAATATATACACACATATATATATATATA [CACACA_site1066]”, the “gcPBM binding intensity (ln)” value was 9.18 ± 0.31. With “CGTTTCCCCAATGGTTGTACAATATATATATATATA [XGTACX_site8641]” the “gcPBM binding intensity (ln)” value was 9.46 ± 0.12. “TTGTGTTTTATTATTTTATTATTACTATTATAATGT [GTGCAC_negctrl_site484]” was tested, and the “gcPBM binding intensity (ln)” value was 7.88 ± 0.61. “TAAAAATGGGTATGTACACACTTTATTTTTAATACA [CACACA_site5404]” was tested, and the “gcPBM binding intensity (ln)” value was 7.73 ± 0.16. For “ATAAAACATAAATACATACACACATAATATATATTA [CACACA_site110]”, the “gcPBM binding intensity (ln)” value was 7.82 ± 0.21. With “ACATATTTAAAAACATGTACAAATATATTTATAATT [XGTACX_site661]” the “gcPBM binding intensity (ln)” value was 7.67 ± 0.47. For “AAGGAAGATATATACACACATACAAATATATATATA [CACACA_site2181]”, the “gcPBM binding intensity (ln)” value was 9 ± 0.11. “TGTAATGTTTACAACACACAAATTAGAAATACAAAA [CACACA_site6924]” was tested, and the “gcPBM binding intensity (ln)” value was 7.76 ± 0.68. “TATCTTATTTTATCTCGTACATAAAATTAAAAAATT [XGTACX_site3636]” was tested, and the “gcPBM binding intensity (ln)” value was 7.78 ± 0.17. With “TTAAATTACTAATGTGCACACATACTAACGTTTAAA [CACACA_site3573]” the “gcPBM binding intensity (ln)” value was 9.93 ± 0.014. With “TTTTATTTATTATTTACACACACGTAGGTGTCCATA [CACACA_site430]” the “gcPBM binding intensity (ln)” value was 7.89 ± 0.62. “AATATGTATCCATACACACATACATTTTATTTGCAA [CACACA_site874]” was tested, and the “gcPBM binding intensity (ln)” value was 7.91 ± 0.73. With “CATTTTATTTTAATATGTACTTAAAGAAAAAAAATT [XGTACX_site7670]” the “gcPBM binding intensity (ln)” value was 7.87 ± 0.31. In the case of “TTTTGACATTAATTACTATAGTGTTCTTATAAAATT [TGCATGCA_negctrl_site589]”, the “gcPBM binding intensity (ln)” value is reported as 7.76 ± 0.64. “AATACATAAAAATAAAAATAAAATATAACTAATATG [CACACA_negctrl_site186]” was tested, and the “gcPBM binding intensity (ln)” value was 7.46 ± 0.67. “AAAACTATAATGAATAGTACATAAAAATGGATATAT [XGTACX_site6056]” was tested, and the “gcPBM binding intensity (ln)” value was 7.93 ± 0.73. For “AATCGATAAAATGTTGTGCACATATTTTTATATTTA [GTGCAC_site9651]”, the “gcPBM binding intensity (ln)” value was 10.5 ± 0.22. “TTATACATATATTTAACACACATTTTATAAAGTGCC [CACACA_site1314]” was tested, and the “gcPBM binding intensity (ln)” value was 7.95 ± 0.54. In the case of “TATATACACATGCGCACACACAAGTGGGAAATTTGG [CACACA_site6930]”, the “gcPBM binding intensity (ln)” value is reported as 8.45 ± 0.78. In the case of “AATATTTGCCTATGTTGTACTGACATTTTTTTAAGT [XGTACX_site6836]”, the “gcPBM binding intensity (ln)” value is reported as 7.91 ± 0.54. “TAATAATCCACAAGCACACACACACCCATATATATA [CACACA_site1267]” was tested, and the “gcPBM binding intensity (ln)” value was 8.51 ± 0.61. With “TTAAGGATCCACGATACACACATATCATTCAACAAA [CACACA_site1924]” the “gcPBM binding intensity (ln)” value was 7.57 ± 0.54. In the case of “ATATATAATATATGATGTACTTAATAATTTTTTTTT [XGTACX_site5715]”, the “gcPBM binding intensity (ln)” value is reported as 7.41 ± 0.3. In the case of “TTAACCTTTATATAATACGTATCATCCTCATATATA [CACACA_negctrl_site86]”, the “gcPBM binding intensity (ln)” value is reported as 8.02 ± 0.71. “ATATAAAATCAACAAAAAAAAAAAATATATATATAT [XGTACX_negctrl_site251]” was tested, and the “gcPBM binding intensity (ln)” value was 9.26 ± 0.23. For “TGTATATATTTGTGCACACCAAAGTTTGATTTTATT [CACACA_site1860]”, the “gcPBM binding intensity (ln)” value was 10.9 ± 0.099. For “TTATATTTTTTAATTACACACAATTCTTATAAATAT [CACACA_site7870]”, the “gcPBM binding intensity (ln)” value was 7.72 ± 0.52. With “TATTATAACTAAAAAAATCACATAAAATACTTTATT [CACACA_negctrl_site2]” the “gcPBM binding intensity (ln)” value was 7.24 ± 0.41. With “GTTATTAAAAACGGGTGTACACATATATAAATATAT [XGTACX_site1234]” the “gcPBM binding intensity (ln)” value was 8.28 ± 0.52. With “TATTTATTATAAAAATTGTATAAAATAATAATGCTC [GTGCAC_negctrl_site456]” the “gcPBM binding intensity (ln)” value was 7.71 ± 0.45. “AAATTGGGGCTTGTTACACACTTAGTGTGAGTTCTA [CACACA_site6417]” was tested, and the “gcPBM binding intensity (ln)” value was 7.84 ± 0.58. In the case of “ATTTATAATATGTATACACACACATATATAAATATA [CACACA_site8729]”, the “gcPBM binding intensity (ln)” value is reported as 7.67 ± 0.49. “TATAATCATAAATACACACACATATATATATATATA [CACACA_site5224]” was tested, and the “gcPBM binding intensity (ln)” value was 9.15 ± 0.49. In the case of “TTCTCATCCTTACATACACACACATATATATATATA [CACACA_site7914]”, the “gcPBM binding intensity (ln)” value is reported as 9.49 ± 0.25. With “GTTCAATTATTTTTATGTACATATATTTTTTTCTTT [XGTACX_site2505]” the “gcPBM binding intensity (ln)” value was 8.3 ± 0.49. With “TAAAAAAAAAAAAAAGTACACACTTATAAAATATTA [CACACA_site872]” the “gcPBM binding intensity (ln)” value was 7.77 ± 0.38. For “ATATATTTTTTGAATACACACATATTATATGTAATA [CACACA_site1256]”, the “gcPBM binding intensity (ln)” value was 7.81 ± 0.57. For “ACAAATGAGATTATATGTACACATAACAAATTTACA [XGTACX_site3496]”, the “gcPBM binding intensity (ln)” value was 7.83 ± 0.26. For “GTTACACCAACAAACACACACACACCGACACCCAAA [CACACA_site5361]”, the “gcPBM binding intensity (ln)” value was 8.32 ± 0.014. “AAATGTAAAATTTTATGTACATATATTTATATAATA [XGTACX_site3737]” was tested, and the “gcPBM binding intensity (ln)” value was 7.78 ± 0.33. In the case of “ATGTTTTATAAAAGGCGTACACATATATTTAAGTAA [XGTACX_site6231]”, the “gcPBM binding intensity (ln)” value is reported as 8.495 ± 0.064. In the case of “TTTATTTATTTAATTACACACGAACATATAACCATT [CACACA_site7952]”, the “gcPBM binding intensity (ln)” value is reported as 8.03 ± 0.5. In the case of “TTCATTCTATAAAACACACAAATATTTTTGTATCCC [CACACA_site6458]”, the “gcPBM binding intensity (ln)” value is reported as 7.71 ± 0.69. With “ATATATTTTAATGATACACACAAGAAATAAAATTAC [CACACA_site5671]” the “gcPBM binding intensity (ln)” value was 8.01 ± 0.46. For “ATAGAACAATTCAGAAGTACATAAAAAGAAAAATTT [XGTACX_site3015]”, the “gcPBM binding intensity (ln)” value was 7.75 ± 0.79. In the case of “TTGGATGATTAAGGGGGACACACGTTTATATATTTA [CACACA_site338]”, the “gcPBM binding intensity (ln)” value is reported as 8.82 ± 0.32. “TTTTGTGATCTTACCACCTTTCATAATATTAATAAA [GTGCAC_negctrl_site360]” was tested, and the “gcPBM binding intensity (ln)” value was 8.3 ± 0.53. In the case of “TTTCACAAATGATATAGTACTTTTTATTATTAACAT [XGTACX_site7976]”, the “gcPBM binding intensity (ln)” value is reported as 7.72 ± 0.56. With “ACTTTTTTAATGTTACGTACACATAAATAATAATTA [XGTACX_site8092]” the “gcPBM binding intensity (ln)” value was 8.35 ± 0.2. With “GTACACATATAGTAATAATTTTATTATATTTTTTTG [CACACA_negctrl_site843]” the “gcPBM binding intensity (ln)” value was 7.53 ± 0.64. For “ATTTTAATATAAAATACACACTACTATTATAAATAT [CACACA_site4917]”, the “gcPBM binding intensity (ln)” value was 7.53 ± 0.56.
